Experimental data from the supplement of paper PMC3334620.
The full ranking holds about 33,000 sequences; the median of “E-score (-0.5 to 0.5)” is about -0.041, and the highest 2% start at about 0.37. Some of the results follow.

Each sequence was assayed against T1, Ecm22 (UniProt Q05958) (assay: PBM E-score (8-mer binding enrichment) (E-score (-0.5 to 0.5)); higher = stronger / more preferred TF binding; most listed sequences are background and not binding sites). Settings: protein concentration: 200 nM; construct: GST-full length.
T1 sequence: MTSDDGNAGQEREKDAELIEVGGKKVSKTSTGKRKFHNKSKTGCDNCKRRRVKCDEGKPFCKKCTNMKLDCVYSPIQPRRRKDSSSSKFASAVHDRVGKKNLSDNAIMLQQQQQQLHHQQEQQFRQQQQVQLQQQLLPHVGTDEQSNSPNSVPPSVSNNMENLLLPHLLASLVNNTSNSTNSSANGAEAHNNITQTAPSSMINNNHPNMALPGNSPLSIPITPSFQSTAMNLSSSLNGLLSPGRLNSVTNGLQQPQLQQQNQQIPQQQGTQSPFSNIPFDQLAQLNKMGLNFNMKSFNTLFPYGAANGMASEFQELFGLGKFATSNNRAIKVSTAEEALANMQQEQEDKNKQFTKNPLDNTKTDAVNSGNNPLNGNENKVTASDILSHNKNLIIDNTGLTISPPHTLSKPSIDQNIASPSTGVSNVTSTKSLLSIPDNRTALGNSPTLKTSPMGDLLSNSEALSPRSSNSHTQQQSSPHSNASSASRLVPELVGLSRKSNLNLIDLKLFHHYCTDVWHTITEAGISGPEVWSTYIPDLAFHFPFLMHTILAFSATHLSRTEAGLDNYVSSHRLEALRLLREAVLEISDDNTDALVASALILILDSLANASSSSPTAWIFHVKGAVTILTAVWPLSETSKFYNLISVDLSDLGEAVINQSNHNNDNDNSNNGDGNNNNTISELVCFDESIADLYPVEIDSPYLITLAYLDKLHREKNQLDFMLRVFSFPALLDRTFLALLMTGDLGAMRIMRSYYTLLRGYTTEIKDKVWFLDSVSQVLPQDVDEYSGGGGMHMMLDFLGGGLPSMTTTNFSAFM
Method in brief: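 Detection of bound protein used fluorescent anti-GST, with scans normalised by masliner. The proteins were GST-tagged yeast transcription factors applied at about 100-200 nM to universal all-10-mer Agilent arrays made double-stranded by primer extension. Each ungapped eight-base word, pooled with its reverse complement, was scored with an E-score from the Universal PBM Analysis Suite.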

Compared with GAAGCGAA, ACAGACTG is lower in “PBM E-score” value: 0.207 for the first, 0.0261 for the second.

First: TCACACGA
Second: ATGATTAA
The “PBM E-score” value of the first is higher: 0.256 for the first, 0.16 for the second.

Compared with AGTATCGG, ACATTCGT is higher in “PBM E-score” value: 0.0512 for the first, 0.37 for the second.

First: GCCCTGAC
Second: TACACTGA
The “PBM E-score” value of the first is lower: -0.342 for the first, 0.0566 for the second.

Compared with CACCTATA, AGACGTCG is higher in “PBM E-score” value: 0.085 for the first, 0.171 for the second.

Going from GACGGTAA to CAATTAGG, the “PBM E-score” value rises from 0.0065 to 0.109.

Going from CTCCAATA to ACAAAGGA, the “PBM E-score” value rises from -0.253 to -0.0393.

First: ATCGGCCG
Second: CCCTAACA
The “PBM E-score” value of the first is higher: -0.0964 for the first, -0.121 for the second.

First: GAACGTAA
Second: GAGTCTGC
The “PBM E-score” value of the first is higher: 0.246 for the first, -0.0527 for the second.

Going from AAGCTGTC to CAGCCTTC, the “PBM E-score” value falls from -0.0358 to -0.207.

Compared with AGTCCCGC, ACGTTGGA is higher in “PBM E-score” value: -0.245 for the first, 0.127 for the second.

Going from GTACTGGA to AGGCCCTC, the “PBM E-score” value falls from 0.127 to -0.105.

First: AACGAGAT
Second: CCAAGTAC
The “PBM E-score” value of the first is higher: 0.438 for the first, 0.12 for the second.

Compared with GATTCTCA, AGAACGTC is lower in “PBM E-score” value: -0.0618 for the first, -0.0743 for the second.

Compared with ACCTGCGC, AGGGACGC is higher in “PBM E-score” value: -0.0892 for the first, -0.0677 for the second.

Going from AGGCATCG to GAGGGCCA, the “PBM E-score” value falls from 0.245 to -0.123.

Going from AAAACGCC to ACCTCTTC, the “PBM E-score” value rises from -0.0729 to -0.064.

Compared with GCTATCTA, CTGTTGCA is higher in “PBM E-score” value: -0.157 for the first, -0.11 for the second.

Compared with AGACTGGC, AAAACACT is higher in “PBM E-score” value: -0.228 for the first, 0.00989 for the second.

First: CTTCACTC
Second: GGCTTACC
The “PBM E-score” value of the first is higher: 0.00687 for the first, -0.0958 for the second.

Going from CGTTAAGC to CGGTATAA, the “PBM E-score” value falls from 0.4 to 0.161.

Going from AAGCCGTG to CGGGTTTC, the “PBM E-score” value rises from -0.126 to 0.0663.

Compared with AACAGATT, CGGTTAAC is higher in “PBM E-score” value: -0.164 for the first, 0.228 for the second.

Compared with ATATCCTG, AGGCCTAC is lower in “PBM E-score” value: 0.0485 for the first, -0.0913 for the second.

First: GACCTCAC
Second: CATCGTTA
The “PBM E-score” value of the first is lower: -0.139 for the first, 0.259 for the second.

Going from TCCCAGCA to ATTCATTA, the “PBM E-score” value rises from -0.0198 to 0.0723.

First: CATTGTGG
Second: ATGGGACA
The “PBM E-score” value of the first is lower: -0.185 for the first, -0.171 for the second.

First: GCACGGCC
Second: ACATTAGC
The “PBM E-score” value of the first is lower: -0.127 for the first, 0.0206 for the second.

Going from ACTATGAT to ACTTACTC, the “PBM E-score” value falls from -0.107 to -0.245.

Going from CATTAGAA to CGCCCGTA, the “PBM E-score” value rises from 0.0854 to 0.306.

First: CGCCTCGC
Second: AGCTTGTC
The “PBM E-score” value of the first is higher: 0.21 for the first, 0.00858 for the second.

Compared with ACCACGAG, ATTTATAG is lower in “PBM E-score” value: 0.0514 for the first, -0.0984 for the second.

First: AATGATCG
Second: CCACCCCA
The “PBM E-score” value of the first is higher: 0.18 for the first, -0.236 for the second.

Going from ATATTACG to CGGACGCA, the “PBM E-score” value falls from 0.296 to 0.046.

Going from CATAAGTA to ACACACCT, the “PBM E-score” value rises from -0.0909 to -0.069.

Compared with CGACCGCG, GAAATAAA is lower in “PBM E-score” value: 0.183 for the first, 0.146 for the second.

Going from CGCCTGAG to CAAACTGA, the “PBM E-score” value rises from -0.235 to -0.104.

Going from AATGGTAA to GAGACATA, the “PBM E-score” value rises from -0.0535 to -0.0349.

Compared with CGATCACA, CCCTAATA is lower in “PBM E-score” value: 0.0902 for the first, -0.194 for the second.

First: GCTGTTGA
Second: GCATTCAA
The “PBM E-score” value of the first is lower: -0.115 for the first, 0.119 for the second.

First: ACGATGAG
Second: GTGTGCAA
The “PBM E-score” value of the first is higher: 0.276 for the first, 0.0745 for the second.

Compared with CTACAGCA, CAATGACA is lower in “PBM E-score” value: -0.136 for the first, -0.156 for the second.

First: GAGACCAA
Second: AATTAAGA
The “PBM E-score” value of the first is higher: -0.0778 for the first, -0.202 for the second.

Compared with GATCTTCA, ACTAAAAA is higher in “PBM E-score” value: -0.0293 for the first, 0.0191 for the second.

Compared with GCCTTTTA, ACTCCCAA is lower in “PBM E-score” value: -0.0709 for the first, -0.0881 for the second.

Going from CTCGAAAG to CGTTCTAG, the “PBM E-score” value rises from 0.096 to 0.23.

Compared with CTAGACAG, ACTAGTAC is higher in “PBM E-score” value: -0.189 for the first, 0.0206 for the second.

Compared with AGGGCAGG, CGGGAGGA is higher in “PBM E-score” value: -0.132 for the first, 0.0611 for the second.

Going from GATGGCGA to AGAATACA, the “PBM E-score” value rises from -0.00405 to 0.1.

Compared with GTAGACCA, AATATCGT is higher in “PBM E-score” value: -0.144 for the first, 0.34 for the second.

Compared with TGCTAACA, ATTGGATA is lower in “PBM E-score” value: -0.0691 for the first, -0.127 for the second.

Going from CGTTTCAA to ACCTGGCA, the “PBM E-score” value falls from 0.273 to -0.203.

Going from ATCTTATG to ACTGGGTA, the “PBM E-score” value rises from -0.187 to 0.0533.

First: AAATTTCA
Second: TACCACTA
The “PBM E-score” value of the first is lower: -0.309 for the first, -0.0337 for the second.

First: AAGAAACA
Second: ACCAGTAT
The “PBM E-score” value of the first is lower: -0.104 for the first, 0.018 for the second.

Compared with GGGCACCC, ATCAAATC is higher in “PBM E-score” value: -0.189 for the first, -0.0388 for the second.

First: CAGGACAG
Second: AATTGAGA
The “PBM E-score” value of the first is lower: -0.0508 for the first, 0.0711 for the second.

Going from CCGATTAC to GAGGCCAA, the “PBM E-score” value falls from 0.0999 to -0.00374.

Compared with CATGAAAC, ATCTGTAC is higher in “PBM E-score” value: 0.0812 for the first, 0.19 for the second.

Compared with ACGGCGAA, TACGTCCA is lower in “PBM E-score” value: 0.225 for the first, 0.00582 for the second.

Compared with GTCGACGA, CCCTGGTA is lower in “PBM E-score” value: -0.0129 for the first, -0.183 for the second.

First: CAACCTAA
Second: GAAAGGCA
The “PBM E-score” value of the first is higher: -0.0472 for the first, -0.124 for the second.

First: GGAGTGGA
Second: CTGGTGCC
The “PBM E-score” value of the first is higher: -0.032 for the first, -0.276 for the second.

Compared with ATACCATA, TGGACGAA is lower in “PBM E-score” value: 0.134 for the first, -0.0106 for the second.

First: CGTTGAGC
Second: ACGCCCGT
The “PBM E-score” value of the first is lower: 0.0667 for the first, 0.231 for the second.

First: CGACACCG
Second: AGCTATGG
The “PBM E-score” value of the first is higher: 0.147 for the first, -0.116 for the second.

First: CATTAAGG
Second: AAATAACT
The “PBM E-score” value of the first is lower: -0.121 for the first, 0.0821 for the second.

Compared with GGACAGTA, CTGCTTTA is lower in “PBM E-score” value: 0.0902 for the first, -0.0994 for the second.

First: CACCTGAA
Second: CACCTATC
The “PBM E-score” value of the first is higher: 0.00509 for the first, -0.031 for the second.

First: TCGGTTCA
Second: CTACCGGA
The “PBM E-score” value of the first is higher: 0.194 for the first, -0.297 for the second.

Going from CGGACTTC to TAAAATAA, the “PBM E-score” value falls from -0.014 to -0.0272.

First: GCTCGACC
Second: ACAGTAAT
The “PBM E-score” value of the first is higher: -0.0173 for the first, -0.0196 for the second.

Going from AACGAGCG to AAGTCGCG, the “PBM E-score” value falls from 0.459 to 0.152.

Compared with ATTCTGCG, GATGCTCA is lower in “PBM E-score” value: 0.0686 for the first, -0.0716 for the second.

Going from AATCTGGC to CGGTTCAG, the “PBM E-score” value rises from -0.277 to 0.0479.

First: CAGAAATG
Second: GGGTGAGA
The “PBM E-score” value of the first is higher: -0.165 for the first, -0.286 for the second.

First: CGACTCTA
Second: GAGAGATA
The “PBM E-score” value of the first is higher: 0.164 for the first, -0.047 for the second.

First: CCTACAAG
Second: ATGATAGA
The “PBM E-score” value of the first is higher: -0.00243 for the first, -0.0329 for the second.

Compared with ACCAAACA, CACCACAG is lower in “PBM E-score” value: 0.201 for the first, -0.132 for the second.

Going from CCCTGACC to ACAGCCCC, the “PBM E-score” value falls from -0.0114 to -0.165.

Going from CTCCCGAC to AAGGCTTC, the “PBM E-score” value falls from 0.155 to -0.137.

Going from GCGCAGAC to CCTTTCAA, the “PBM E-score” value falls from 0.0727 to -0.203.

Compared with CCAGAAGA, ACGCGATG is higher in “PBM E-score” value: -0.143 for the first, 0.12 for the second.

First: CCATCAGA
Second: ACCTCAAC
The “PBM E-score” value of the first is higher: -0.12 for the first, -0.182 for the second.

First: CAAAGAAC
Second: GTATAGAA
The “PBM E-score” value of the first is lower: -0.00879 for the first, 0.25 for the second.

Compared with AGGATCAC, CCCTCAAG is lower in “PBM E-score” value: -0.171 for the first, -0.213 for the second.
